Experimental findings from the supplement of paper PMC10681739 are described below.

± gives the standard deviation of the averaged measurements. Whole data set: some 4,100 sequences, median “arbitrary fluorescence units” near 780, cut for the highest 2% near 22,000. The list shows a part of the results.

This assay concerns the target T1, ETS1 (UniProt P14921).
T1 sequence: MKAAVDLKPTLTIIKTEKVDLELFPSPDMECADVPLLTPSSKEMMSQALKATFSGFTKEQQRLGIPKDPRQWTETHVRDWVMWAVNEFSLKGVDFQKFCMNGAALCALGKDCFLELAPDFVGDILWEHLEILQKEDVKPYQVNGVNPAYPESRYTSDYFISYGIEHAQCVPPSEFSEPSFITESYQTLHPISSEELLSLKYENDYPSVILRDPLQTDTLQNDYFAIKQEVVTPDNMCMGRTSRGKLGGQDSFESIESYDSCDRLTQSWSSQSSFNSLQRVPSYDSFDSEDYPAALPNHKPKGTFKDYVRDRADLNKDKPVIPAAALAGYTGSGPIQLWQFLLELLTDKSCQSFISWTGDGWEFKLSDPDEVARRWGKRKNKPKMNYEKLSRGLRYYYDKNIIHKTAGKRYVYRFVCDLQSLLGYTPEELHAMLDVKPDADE
The assay is described as follows: ETS1 binding intensity (PBM fluorescence), ETS1 alone (arbitrary fluorescence units); higher = stronger binding. Particulars: ETS1 concentration 1 nM; RUNX1 concentration 0 nM. In outline:
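Recombinant full-length human ETS1 was applied at 1 nM, without RUNX1, to double-stranded Agilent 4 × 180k arrays of 36-bp genomic probes carrying a mutated RUNX1 partner site, following standard PBM protocols. Detection used an anti-ETS1 antibody (Cell Signaling Technology 14069) and an Alexa488-conjugated secondary antibody, with scanning on a GenePix 4400A. Each sequence was printed as four replicate spots. Binding level is the spot fluorescence intensity, summarised across replicates and not normalised.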
The sequence GTTTTCAGGTTGGGGTGCGTGTAGGATGTGCTCTGG showed an ETS1 binding intensity of 487.
To GCGCCCGCCGCCAGGAAGGACCCCGAAGACGCCGCT belongs 479.
In the case of CCAGCGGAAAGCCGGTCAGGGGGAACAGCGGCGGGG it was 513; in that of CAGAAACATCCCTCCTGCCGCCGCTTTGGGGTACCA, 554.
To TGATGCACTTCCTGAGGGCCCGCGTGTGATAAACAC belongs 8580; to CGATTCCGGATTGGTCCAGTTCCAGCGCCGAAGCCC, 711.
CCCACTTCCTGTCTGCTTCCCTCCTCCGCTCAGACC had an ETS1 binding intensity of 28400.
To ACCAACCGGAAGTGATCGTGTCGTGGCCGAAGGAGG belongs 32300; to CACCTCAGCTTCCTGAGTAGCTGGGACCCCAGGCGT, 3590; to GACACAAGACAGTTTCCGTCAGTGGATAAGCCCTAA, 2290.
For the sequence CTCATAACCTCTAACTCAACCTCTAACATTTCCTGT, the ETS1 binding intensity amounted to 1190.
To GGCGGGTACTACGGCCCGCCCCACTTCCGGTTGTTG belongs 14400; to GAGGCCCAGGATGTGGCTGGAGGCCTGAGGTGGGAC, 880; to AGACGGGACCGGAAGCCGGGCCGTAGGCGGCCGGGC, 12100.
In the case of AGAAAACTACATTCAATTCTCTTTACACAGGATGTT it was 661; in that of ACAGATCCAAGGAAGCATATCCAGCAAGCAACTGTT, 509.
Consider TGCTTAGCAGGAAGTTAGTCTGCCTGAGGTAGCTCC, for which the ETS1 binding intensity stood at 2790.
For ATAACCCCAACTACGGCCAACATCCGAGTGCACTGA, the ETS1 binding intensity was 520.
In the case of GGGGCCTCTGGTGAACTGGAGAGGAAATGCTGCATT it was 514.
GCATCTGGGGTTCAAGTGGCCACTTCCTGCCAGCCG registered an ETS1 binding intensity of 4980.
To TTACGCAGTGGCTGGAGAGCGTTGGCAGGAACCCAA belongs 329; to TTGGGGTTCGGGCGTGTCGCGGAGCCCGGATGTAAT, 479.
For TCTTCAGCAGGAAGACCCTGGTCTAGCCCCAAGCCT, the ETS1 binding intensity is 457.
In the case of GCCCCCGGAAGCTGTCGCCCCGTACGGTGTGTGCTG it was 2320; in that of GGCAGGCTCAGCGGGCCAGGATGAGTTCTAAGCACA, 314.
To GACTGGCTGAGGGAGGGGTTTAGGCTTCCGCCCCCA belongs 580; to TGCCAAGACTTCCCCGCGGACCCCGTAACAGCTCCA, 394; to ATTGTAAATTTCCTTTAAACGTCCCCAGCGCGCTCC, 1320.
To GGCCTGCAGTCCGGGGCCGCTCGGCAGGCGGAAGCC belongs 328; to GTGCGGAACCTCCATTTTTAAAGGGCCAGGAAGCTT, 528; to ACGAGGTTGCTGTTTCTCCACATCCTCAACAACCTG, 534.
CTCAGTGTGATTAAAGACATGCAAGGCAGGATAGAA gave an ETS1 binding intensity of 398.
Sequence GCTTGACCCCAACACCTGCTACACTTCCTGAAGACA returned an ETS1 binding intensity of 876 ± 88.
For ACATGGTCTCGCTTCCTGTTTACACCAGAGAAAGCT, the ETS1 binding intensity is 15000.
The sequence CCAAAAAGGAAGGAAACCAGAAAGTCACAGAATGGT came in with an ETS1 binding intensity of 708.
Sequence GCAGCTTCCGCGGCCCCCGCCCGGCCTGCAGCGCCA gave an ETS1 binding intensity of 2350.
Sequence GGTGCCGTTAAGGCGAGGCTCCTTCTTTCCTGTGAC came in with an ETS1 binding intensity of 417.
TGTGCTTAGAACTCATCCTGGCCCGCTGAGCCTGCC registered an ETS1 binding intensity of 345.
In the case of TCAGAACTTGGATTTGAGAGTTTCCTGTTTTCTTGA it was 1940; in that of CCACACTGCCCCCCAAGGCGTTTCCGGGTTTTGAGG, 2570.
CTGCTACGGCAGAACGCGACGTGCTAACCGGAATCC returned an ETS1 binding intensity of 426.
Sequence ACCTTCTGTTCCCTTCCTCAGACCGAAGGCGAGATG registered an ETS1 binding intensity of 465.
In turn, GTTTTCCTGGTGGCCCGGCCATGCCTGACGTTTCTC showed an ETS1 binding intensity of 2620.
In the case of ACCCACCCGGAAGTCCTCCTGGCCTACAAGCTCCGC it was 5570; in that of GTTGAGTTCCGGGGGAGGTTGAGTTCCTGCGCTCAA, 2560; in that of CATAGGAAGTGCTCAGCTCTCCTCCACCTCAAGTTT, 706.
In the case of TTTTTTCCGCCCGCTTCAAACATGGCGTTCAAGCCC it was 4390; in that of GAGCCACCGGAAACGGAGCTGCGCCCGCGCCCCGCC, 9940.
To CTCTCTCCACCAGAGTCACTTATCGCTTCCTGGAGG belongs 545.
With AGCCTCAGGGAAGTAGCGTCCCCTAGTGGCAAGAAA, the ETS1 binding intensity was 379.
In the case of CCCTTGGGGCCATGTTACACGCCAGGAAATTGAGCT it was 520; in that of AATTCCCAGGAAGCACTCGGCAGCCATAAACTGATG, 668.
The sequence GCTTAAGGAAGGGACAACTAGAGTGAGTTACTCTGC displayed an ETS1 binding intensity of 502.
To TGGTGGAGCTGCGCCGGGCAATCGGAAATCGGCTAC belongs 424; to CTTTCGCCCTTCCGCGTGCGCTTTGAACGCCCACCC, 658.
In the case of GGACTTCCTGAACTGGGAGGTCACCGACTACAACCT it was 10700; in that of TGCTGAGTGCGCGGGGCCGGACGTCCCGAGACCGGA, 431; in that of TGCCACCTGCTTCCTGCCTGTGTAGCCCCAAGGGAC, 8380.
In the case of GAATGGCGGATGTGGCTGGGGAGAGAAAGCTGCAGA it was 3770; in that of TGATGTAAACCGGACCAGCCGCTGCAGGCAAAGGAG, 314; in that of GCATTTACGGGCAGGAAATGAAACCCCAGAGTACAA, 7680.
As to TGCTCTGGCCACTGAATAACGCTTCCGTCTGAACAC, the ETS1 binding intensity was found to be 690.
In the case of GGGCGCGACTTCCGGGGCGGCGCTTGCATCAGATTC it was 19500.
